Source: the supplement of paper PMC12217912
Some of the results follow. Sequences were assembled here from the parent chain. Inactive controls read about 0.05.

B1: TEV protease; numbered along this chain (parent)
chain: MGESLFKGPRDYNPISSSICHLTNESDGHTTSLYGIGFGPFIITNKHLFRRNNGTLVVQSLHGVFKVKDTTTLQQHLVDGRDMIIIRMPKDFPPFPQKLKFREPQREERICLVTTNFQTKSMSSMVSDTSCTFPSGDGIFWKHWIQTKDGQCGSPLVSTRDGFIVGIHSASNFTNTNNYFTSVPKNFMELLTNQEAQQWVSGWRLNADSVLWGGHKVFMVKPEEPFQPVKEATQL

Variants of: B1
Test: raw area under fraction-flipped curve 0-4 h after induction (AUC4h, not background-subtracted), DNA-recorder readout of cleavage of the substrate (dimensionless); higher = more cleavage of the substrate by the protease variant
Conditions: temperature: 34 °C; time window: 0-4 h after rhamnose induction
Procedure: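 In vivo DNA recorder in E. coli TOP10(DE3) ΔrhaA at 34 °C. Each TEVp single-site mutant (parent TEVp 0) is paired with a single-site variant of the 7-mer TEVs (canonical ENLYFQ|S). The substrate sits between flexible linkers in a Bxb1-sfGFP-TEVs-SsrA fusion, so cleavage stabilises Bxb1 and speeds flipping of a recombination array, read by NGS. The value is the raw area under the fraction-flipped curve over 0-4 h after rhamnose induction (AUC4h), with ≥20 reads per time point. It is not background-subtracted; inactive controls average about 0.047.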
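Also: Bxb1 expression induced with 0.2% (w/v) L-rhamnose at OD600 near 0.5, cultures sampled hourly, flipped fraction per protease–substrate barcode pair counted by paired-end Illumina sequencing.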

| Variant | area with substrate ENLYFCS | area with substrate ENLYFGS | area with substrate ENLYFHS | area with substrate ENLYFIS | area with substrate ENLYFMS | area with substrate ENLYFWS | area with substrate ENLYFDS | area with substrate ENLYFES | area with substrate ENLYFPS | area with substrate ENLYFRS |
| --- | --- | --- | --- | --- | --- | --- | --- | --- | --- | --- |
| P9N | 0.0363 | 0.0629 | 0.0517 | 0.0554 | 0.0529 | 0.0544 | – | – | – | – |
| D11T | 0.0023 | 0.0487 | – | – | – | 0.0548 | 0.05 | 0.0564 | 0.0433 | 0.0625 |
| Y12R | 0.0607 | 0.067 | – | 0.0382 | 0.0681 | 0.0528 | 0.0621 | 0.0463 | – | 0.0534 |
| E25S | 0.0511 | – | 0.0514 | 0.0634 | 0.0703 | – | 0.0809 | 0.0618 | 0.0632 | 0.0644 |
| G35S | 0.0489 | – | 0.0484 | – | 0.0489 | – | – | – | – | 0.0504 |
| G37C | 0.067 | – | – | 0.0376 | – | – | – | – | 0.0548 | – |
| F38V | 0.053 | – | – | – | 0.0592 | – | 0.0519 | – | – | 0.0566 |
| N45G | 0.0524 | 0.0696 | 0.0565 | 0.0564 | 0.063 | – | 0.0687 | 0.0556 | 0.0411 | – |
| V57E | 0.0493 | – | – | 0.0579 | – | 0.0561 | 0.0569 | – | 0.0545 | 0.0666 |
| V58L | 0.0605 | 0.0732 | – | 0.0443 | 0.0608 | 0.0303 | – | 0.0707 | 0.0671 | 0.0417 |
| Q59R | 0.0566 | – | 0.0615 | 0.0647 | 0.0629 | 0.0628 | – | 0.0683 | – | – |
| K66A | 0.0666 | 0.0562 | – | – | – | – | – | – | 0.0586 | – |
| K66E | 0.0744 | 0.0576 | 0.0488 | 0.0374 | 0.0532 | – | 0.042 | – | – | 0.0376 |
| K66H | 0.055 | 0.0616 | – | 0.0495 | 0.0721 | – | – | – | 0.0395 | – |
| K66W | 0.0615 | 0.0687 | 0.067 | 0.0543 | 0.0613 | 0.0574 | – | 0.0726 | 0.0548 | – |
| Q74I | 0.05 | – | – | – | – | 0.0576 | 0.068 | 0.0748 | – | 0.0406 |
| V78N | 0.0415 | – | – | 0.0527 | 0.0598 | 0.0514 | 0.0489 | – | 0.0609 | 0.0688 |
| R81V | 0.0681 | – | – | 0.0553 | – | 0.0575 | – | – | – | – |
| I84H | 0.031 | 0.0555 | 0.0548 | 0.0506 | 0.0617 | – | – | – | – | 0.0539 |
| I86C | 0.0585 | – | – | 0.0312 | – | 0.0627 | – | – | – | 0.0651 |

| Variant | area with substrate ENLYFCS | area with substrate ENLYFGS | area with substrate ENLYFHS | area with substrate ENLYFIS | area with substrate ENLYFMS | area with substrate ENLYFWS | area with substrate ENLYFDS | area with substrate ENLYFES | area with substrate ENLYFPS | area with substrate ENLYFRS |
| --- | --- | --- | --- | --- | --- | --- | --- | --- | --- | --- |
| R87Q | 0.0664 | – | – | – | 0.0849 | 0.0548 | 0.0462 | – | – | 0.0451 |
| P89C | 0.0324 | 0.0635 | – | – | – | – | – | 0.0594 | 0.0611 | – |
| D91M | 0.0642 | – | – | 0.0612 | – | 0.056 | – | – | – | 0.0559 |
| P93L | 0.0517 | – | 0.0607 | – | 0.0646 | – | – | – | – | 0.0547 |
| F95N | 0.0504 | – | – | – | 0.0499 | – | 0.0476 | – | 0.051 | 0.0462 |
| Q97G | 0.0683 | – | – | – | – | 0.0423 | – | – | – | – |
| K98R | 0.0652 | 0.0529 | – | 0.0477 | 0.0626 | 0.0414 | – | 0.0734 | – | 0.0648 |
| L99N | 0.0455 | – | – | 0.0579 | 0.078 | 0.0528 | – | – | 0.0786 | 0.0598 |
| L99V | 0.0525 | – | – | 0.0682 | – | – | 0.0596 | 0.0719 | 0.0586 | 0.0411 |
| R109K | 0.0604 | 0.0595 | 0.0774 | 0.0547 | 0.0441 | – | – | 0.0578 | 0.0658 | – |
| R109Y | 0.0634 | – | 0.0567 | 0.0501 | 0.0986 | – | – | 0.0568 | – | – |
| C111A | 0.0551 | – | – | 0.0625 | – | 0.0422 | – | 0.0757 | 0.0614 | – |
| V113K | 0.0566 | 0.0447 | 0.06 | 0.0487 | – | – | – | – | 0.0588 | 0.041 |
| T114N | 0.0713 | – | – | 0.0568 | 0.0646 | 0.0589 | – | 0.065 | 0.0833 | – |
| T119A | 0.0595 | 0.0604 | 0.0575 | 0.0732 | 0.074 | – | – | 0.0637 | 0.0736 | – |
| T119C | 0.0598 | – | 0.0695 | 0.0449 | – | – | – | 0.0502 | 0.0698 | – |
| T119R | 0.0641 | – | – | – | – | – | – | – | – | – |
| M125Y | 0.0653 | – | 0.0607 | – | – | 0.0533 | – | – | 0.0672 | 0.0514 |
| C131H | 0.0643 | – | – | 0.0495 | – | – | – | 0.09 | – | – |

Same assay, conditions: temperature: 34 °C; time window: 0-4 h after rhamnose induction

| Variant | area with substrate ENLYFTS | area with substrate ENLYFVS | area with substrate ENLYFYS | area with substrate ENLYFFS | area with substrate ENLYFKS | area with substrate ENLYFLS | area with substrate ENLYFNS | area with substrate ENLYFSS |
| --- | --- | --- | --- | --- | --- | --- | --- | --- |
| D11T | 0.054 | 0.0376 | 0.0667 | – | – | – | – | – |
| Y12R | 0.0522 | 0.0056 | 0.067 | 0.0718 | 0.0545 | 0.0669 | – | – |
| E25S | 0.0628 | 0.0531 | – | 0.0554 | 0.0626 | – | 0.0747 | 0.0564 |
| G37C | – | – | – | 0.0402 | – | – | – | – |
| F38V | 0.0575 | – | 0.0541 | – | 0.04 | 0.0412 | 0.0487 | – |
| N45G | 0.0603 | 0.0494 | – | 0.0782 | 0.0603 | 0.0441 | 0.0495 | 0.0553 |
| V57E | 0.0596 | 0.081 | – | 0.0668 | – | – | 0.0743 | – |
| V58L | 0.0629 | – | – | 0.072 | 0.0558 | 0.0616 | – | – |
| Q59R | 0.0626 | – | 0.0597 | 0.0604 | 0.0893 | – | 0.0411 | – |
| K66A | 0.0552 | – | – | – | – | – | – | – |
| K66E | 0.0354 | 0.0653 | 0.079 | 0.0731 | 0.0533 | 0.0645 | 0.086 | – |
| K66H | 0.0434 | – | 0.0707 | 0.0548 | – | – | 0.0875 | – |
| K66W | 0.0508 | – | – | 0.0764 | 0.0598 | – | 0.0565 | – |
| Q74I | – | 0.067 | – | 0.0814 | – | 0.058 | 0.0511 | – |
| V78N | 0.0512 | – | 0.0463 | 0.0692 | – | 0.0599 | 0.0565 | 0.0804 |
| R81V | 0.0555 | – | 0.0691 | 0.0701 | – | – | – | – |
| I84H | – | – | – | 0.0201 | 0.0572 | – | – | 0.0549 |
| I86C | 0.06 | – | – | – | – | – | – | – |

| Variant | area with substrate ENLYFTS | area with substrate ENLYFVS | area with substrate ENLYFYS | area with substrate ENLYFFS | area with substrate ENLYFKS | area with substrate ENLYFLS | area with substrate ENLYFNS | area with substrate ENLYFSS |
| --- | --- | --- | --- | --- | --- | --- | --- | --- |
| R87Q | 0.0408 | – | – | – | – | 0.0494 | – | – |
| D91M | – | – | – | – | 0.0572 | – | – | – |
| P93L | – | – | 0.0484 | – | – | – | – | – |
| F95N | – | 0.0473 | – | 0.0593 | – | 0.0502 | – | – |
| Q97G | – | – | – | – | – | – | 0.0689 | – |
| K98R | 0.0534 | 0.0658 | – | 0.0511 | 0.0622 | – | 0.0684 | – |
| L99N | 0.0739 | – | 0.0606 | 0.0699 | – | – | 0.0754 | 0.0564 |
| L99V | 0.0606 | – | – | 0.0689 | – | 0.0594 | 0.0612 | 0.0477 |
| R109K | 0.0409 | 0.0569 | – | – | – | – | 0.0617 | – |
| R109Y | – | 0.0559 | – | 0.0575 | – | – | 0.0612 | – |
| C111A | 0.0604 | 0.0441 | – | – | – | – | – | – |
| V113K | 0.0573 | 0.0622 | – | 0.0613 | – | – | – | 0.0537 |
| T114N | 0.0859 | – | – | 0.059 | – | – | – | – |
| T119A | 0.0467 | – | – | 0.0615 | 0.0703 | – | – | – |
| T119C | – | – | – | – | – | – | 0.0556 | – |
| T119R | – | 0.0772 | – | – | – | 0.0528 | – | – |
| M125Y | 0.0556 | 0.0775 | 0.0604 | – | – | – | – | – |
| C131H | 0.0537 | – | – | 0.0564 | – | 0.0653 | 0.0587 | 0.0748 |
